About 540 (0.36%) of roughly 150,000 compounds showed an effect of 50% or more. Some of the results follow.
tested on: Plasmodium falciparum; experiment: Primary screen in NF54 nanoGlo assay, in single point, at 2uM, 72h; a lower Z score goes with more inhibition; type: functional, Erythrocyte; settings: timepoint 72 hour

Compound	% Inhibition	Z score
CCN1[C@@H]2CCCC[C@@]2(C(=O)NCCN(C)C2CCCCC2)CCS1(=O)=O	7%	-1.19
Cc1cnc(C)c(N2Cc3cnn(CCO)c3C2)n1	-12%	1.53
CC(C)(C)OC(=O)N1CCN(C(=O)c2ccn(-c3cccc(F)c3)n2)[C@H](C#N)C1	-14%	1.87
CNC(=O)NCc1cccnc1-c1cccc(C)c1	18%	-2.41
O=C(CCn1cnc2cc(-c3noc(-c4ccc(F)c(Cl)c4)n3)ccc21)N1CCCC1	-13%	1.7
COc1ccc(C2CN(C(=O)c3ccc(F)cc3)CC2C(=O)N2CCOCC2)c(OC)c1 (stereo not drawn)	-10%	1.58
CC(C)N1CCC[C@H](CN(C)c2nccc(N)n2)C1	-1%	0.2
COc1ccc(-c2ncc(CN[C@H]3CCCc4c3cnn4-c3ccccc3F)cn2)cc1	-11%	1
CCn1cnc2c1CCN(C(=O)Nc1cc(C)cnc1OC(C)C)C2	-11%	2.05
O=C(NCc1cn(-c2ccncc2)nn1)Nc1nccs1	3%	-0.45
CC(C)(C)n1nnnc1CN1CCc2nc[nH]c2C12CCOCC2	-8%	0.83
CC[C@@H](C(=O)NCc1cnc(C)cc1C)N1CCCC1	-8%	1.18
CCCCc1nc(Cn2nc3ccccn3c2=O)no1	0%	-0.05
NC(=O)CCn1cc(CNCCc2[nH]nc3c2CCCC3)c2ccccc21	-6%	1.2
Cc1cc(Cn2c(-c3ccccc3)c(C)sc2=O)on1	-8%	1.27
CCc1ccc(CNC(C)(C)c2cnn(C)c2)o1	-3%	0.27
Cc1cc(C(=O)N[C@@H](Cn2cncn2)C(C)C)n(C)n1	15%	-1.99
CC(=O)NCc1ccc(-c2noc(CCc3c[nH]c4ccccc34)n2)s1	0%	-0.03
CCn1cc([C@H](CC(=O)NCCOC)c2cc(OC)cc(OC)c2)c2ccccc21	-1%	0.13
CCCCN(CC)CCNc1ncnc2onc(C)c12	-5%	0.88
CNc1nc2c(s1)[C@@H](c1cc(Cl)ccc1F)CC(=O)N2	-3%	0.38

Compound	% Inhibition	Z score
Cc1cccc(-c2nc3n(CC(=O)Nc4ccc(F)cc4)c(C)cc(=O)n3n2)c1	1%	-0.13
Cc1ccc(-n2c(C)nn(-c3ncc(C(F)(F)F)cc3Cl)c2=O)cc1	0%	-0.01
CCCNC(=O)NC(=O)COc1ccc(Cl)cc1	-3%	0.21
COCCNC(=O)[C@@]1(OCc2cccc(OC)c2)CC(OCc2c(F)cccc2F)[C@@H]2OC(C)(C)O[C@@H]2C1 (stereo partly drawn)	1%	-0.09
CC(c1ccccn1)N(C)CC(=O)NC(C)(C#N)C1CC1 (stereo not drawn)	-11%	2.02
O=C(Nc1nc2n(n1)[C@@H](c1ccc(F)cc1)C[C@@H](c1ccccc1)N2)c1cccnc1	-2%	0.24
Cc1cccc(C2(C(=O)N3C[C@H]4CN(C)C[C@H]4C3)CCCC2)c1	-4%	0.45
Cc1ncc2n1C[C@@H](C(=O)Nc1cccc(C(F)F)c1)CC2	-12%	1.28
Cc1ccc(CNC(=O)c2sccc2S(=O)(=O)N(C)C)n1C	-16%	1.45
Cc1nccn1C[C@@H](C)CNC(=O)c1ccc2c(=O)n3c(nc2c1)CCCCCC3	22%	-2.81
O=C(CNC1CCCC1)NCc1ccc(Cl)cc1	0%	0.04
COc1cccc(NC(=O)c2ncn(C[C@H](O)c3ccccc3)n2)c1	-12%	1.38
O=C(C[C@@H]1NC(=O)c2ccccc2NC1=O)NCCc1nnc2ccccn12	-6%	0.91
CCc1cc2c(CC(=O)O)ncnc2s1	-12%	1.75
Cc1ccc(CCC(=O)NCc2cncc(-c3ccoc3)c2)cc1F	27%	-3.42
Cc1noc(C2CN(C(=O)c3cc4ccccc4o3)C2)n1	-6%	1.08
COc1cc2c(cc1OC)[C@@H](NC(=O)c1cnc(C3(C)OCCO3)s1)CCCC2	35%	-6.63
COC(=O)[C@@]1(Cc2c[nH]cn2)N[C@@H](c2cccc(F)c2O)[C@H]2C(=O)N(C)C(=O)[C@H]21	-6%	1.06
Cc1nccn1[C@@H](C)C(=O)NCC1(CO)CCC1	-7%	0.97
CC=CCS(=O)(=O)CC(=O)N1C(C)CCCC1C (stereo not drawn)	7%	-1.29
CC(C)[C@H](CNC(=O)c1ccc(O)c(F)c1)N(C)C	6%	-0.87

Compound	% Inhibition	Z score
CNC(=O)NC(=O)CNc1cc(Cl)cc(Cl)c1	35%	-3.92
COC[C@](C)(NS(=O)(=O)c1c(F)cc(F)cc1OC)C(N)=O	-14%	1.87
Cc1ccc(Cl)cc1N1CCN(CCNC(=O)Cn2ncc3c4ccccc4n(C)c3c2=O)CC1	1%	-0.19
O=C(CCOc1ccccc1)NC1CCC(F)(F)CC1	-5%	0.83
CC[C@H](C)N(Cc1c(-c2cccc(C)c2)noc1N1CCOCC1)C(=O)c1cccs1	1%	-0.15
CC(C)CNC(=O)c1ccc(N(C)C)c(N)c1	2%	-0.27
Cc1nc(C)n(CCCNC(=O)Cc2cccnc2)n1	-16%	2.01
COc1cc2c(cc1OC)CN(C(=O)Cc1nn(C)c3ccccc13)CC2	11%	-1.93
COc1cc(-c2nc(CN3CCN(Cc4nccn4C)CC3)c(C)o2)cc2c1OCO2	-9%	0.75
O=S(=O)(c1sccc1C1OCCO1)N1CC[C@]2(CCOC2)C1	-5%	0.62
Cc1nn(C)c(N)c1C(=O)NC[C@@H]1C[C@H]1c1ccccc1	-6%	0.93
Cc1noc(CS(=O)(=O)Cc2csc(C3CCCCC3)n2)n1	3%	-0.35
Cc1csc2c(N3CC[C@H](N4CCN(C)CC4)[C@H](CCC(=O)O)C3)ncnc12	-3%	0.52
O=C(N[C@H]1CCN2C(=O)c3ccccc3NC(=O)[C@H]12)c1cccc(F)c1	-6%	0.9
O=C1C(n2ccnc2C(O)c2ccccc2)CCN1CC(F)(F)F (stereo not drawn)	2%	-0.19
Cc1nn(C)c2nc(NCCc3noc(C4CC4)n3)sc12	11%	-1.65
COc1ccnc(N2CCN([C@@H](C)c3nc(-c4ccccc4C)no3)CC2)n1	-10%	1.17
Nc1ccnc(CNC(=O)C(Cc2ccccc2)Cc2ccccc2)n1	-17%	1.76
Clc1cnc(NCC[C@H]2CCCCN2C2CCCC2)nc1	13%	-2.41
CC(C)c1cc(CNC2C3CCCOC3C2(C)C)on1 (stereo not drawn)	-16%	1.97
O=C(N[C@H]1CC(=O)N(c2ccc(F)cc2)C1)C1CCCC1	-9%	1.74

Compound	% Inhibition	Z score
Nc1c(C(=O)O)nc2c(Cl)cc(Cl)cn12	-10%	1.23
O=C([C@H]1CCN1)N1CCCCCc2ccccc21	-2%	0.34
O=C(c1ccccc1F)N1CCC(C(=O)N2CCCc3ccccc32)CC1	2%	-0.32
COc1ccc(-n2ncc(Oc3ccc(Cl)cc3)c(Nc3cccc(C(=O)N4CCN(C(C)=O)CC4)c3)c2=O)cc1	-11%	1.44
COc1cc(OC)c(NC(=O)N[C@H]2CCN(c3ccc(F)cc3)C2=O)cc1Cl	-9%	1.38
COc1ccccc1CCCN[C@H]1CCCNC1	0%	-0.01
CNC/C=C/COc1cccc(C(C)(C)C)c1	8%	-1.36
COCn1nccc1S(=O)(=O)N1CCOC[C@H]1c1cccc(F)c1	-3%	0.42
O=C(NCCN1CCC[C@H](CO)C1)NCC1CCCCC1	-10%	1.05
COc1ccc(-c2cc3nc(C4CCN(C(=O)OC(C)(C)C)CC4)c(C(=O)Nc4ccc(C)c(C)c4)cn3n2)cc1	-6%	0.9
C[C@H]1CN(S(=O)(=O)CC2CC2)CCN1S(=O)(=O)CC1CC1	-5%	0.94
CCOC(=O)[C@H](C)N1CCC(Nc2nc(CC)cs2)CC1	-11%	1.57
O=C(c1cc(C2CC2)[nH]n1)N1CC(OCC(F)F)C1	28%	-3.19
Cc1nc(-c2ccc(Cl)s2)sc1C(=O)N[C@H]1CCOC2(CCCC2)C1	-5%	0.59
COCCN1CCn2cc(S(=O)(=O)Nc3ccccc3F)cc2C1=O	-2%	0.28
Cc1ccccc1NC(=O)CC(=O)N(C)CCN1CCCCC1=O	-14%	1.32
CCOC1CC(NC(=O)C2CCCN2c2ncccn2)C12CCCC2 (stereo not drawn)	-3%	0.44
COc1cccc(C(=O)N(Cc2ccc(F)cc2)c2cccc(CC(=O)NCC3CC3)c2)c1	3%	-0.56
Nc1nc2c(s1)[C@@H](c1cccc(OCCc3ccccc3)c1)CC(=O)N2	5%	-0.5
COc1cccc(C(=O)N2CCC3(CC2)C[C@@H](N(C)Cc2ccccc2)CCO3)c1	-9%	1.23
O=C(O)c1cc(NS(=O)(=O)c2cc(F)ccc2F)ccc1N1CCCCCC1	-4%	0.67
